# Results as given in the supplement of paper PMC4166925.
# ± gives the standard deviation of the averaged measurements. Over roughly 33,000 sequences, “E-score (dimensionless, -0.5 to 0.5)” has its median near -0.049; the highest 2% begin near 0.37. The list shows a part of the results.
# Test system: T1, PmTbr T-box DNA-binding domain (GST fusion)
# T1 sequence: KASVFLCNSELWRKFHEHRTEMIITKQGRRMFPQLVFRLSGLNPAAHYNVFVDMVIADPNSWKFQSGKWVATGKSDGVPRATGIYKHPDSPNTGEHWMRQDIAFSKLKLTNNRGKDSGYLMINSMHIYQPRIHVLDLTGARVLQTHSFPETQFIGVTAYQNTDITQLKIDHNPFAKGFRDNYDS
# Experiment: PBM E-score of 8-mer (E-score (dimensionless, -0.5 to 0.5)); Tbr is Tbrain of the sea star Patiria miniata (Pm) or the sea urchin Strongylocentrotus purpuratus (Sp); higher = stronger binding preference; most listed sequences are background and not binding sites
# Conditions: the construct has about 5 more residues each side
# Outline: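 Using the Universal PBM Analysis Suite, every ungapped 8-mer received an enrichment E-score averaged over duplicate arrays. Probe intensities came from double-stranded Universal Agilent oligonucleotide arrays incubated with 200 nM GST-fused Tbr T-box DNA-binding domain in PBS (pH 7.5). That protein was expressed in BL21 E. coli at 20 °C and purified by glutathione affinity chromatography.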
row,Sequence,PBM E-score of 8-mer
1,AGTTTTGC,0.0662 ± 0.03
2,CGGACTAA,-0.0827 ± 0.038
3,GGGAAGAC,0.0167 ± 0.044
4,TAGCTAAA,-0.135 ± 0.11
5,AGGGATGG,-0.184 ± 0.019
6,CACACCAG,0.399 ± 0.018
7,ACGACGCA,-0.185 ± 0.04
8,AATCCCCA,0.0304 ± 0.051
9,CTTCGGGC,-0.141 ± 0.071
10,GGTACTAC,-0.199 ± 0.025
11,GCGAAGCA,0.129 ± 0.032
12,AGTAGCCC,-0.224 ± 0.068
13,CGCAGTTC,0.0883 ± 0.018
14,CCACTAAG,-0.13 ± 0.037
15,AGTGGCAT,0.0805 ± 0.0044
16,TATTGGGA,-0.222 ± 0.0037
17,GGAGGACC,-0.319 ± 0.021
18,AGATTTTA,-0.0741 ± 0.014
19,AGGACTGC,-0.264 ± 0.005
20,AGACTCAG,-0.176 ± 0.1
21,CACCGATG,0.0976 ± 0.028
22,CCCGATTA,0.0524 ± 0.024

row,Sequence,PBM E-score of 8-mer
1,GAATTCAC,0.157 ± 0.065
2,GTATCCAA,-0.122 ± 0.013
3,AAATTAGA,-0.215 ± 0.017
4,CTCGTTGA,0.117 ± 0.0086
5,TCCAATCA,-0.0699 ± 0.008
6,CACCGGAA,0.0148 ± 0.014
7,CCATGTGA,0.249 ± 0.017
8,ATTGACAG,0.15 ± 0.052
9,GAAAGTCC,-0.0976 ± 0.013
10,ACCTTTGA,0.0474 ± 0.073
11,GCAATCGA,-0.0452 ± 0.025
12,ATTACGCG,0.178 ± 0.037
13,ACGTCATG,-0.0872 ± 0.015
14,ACCAGCGA,0.118 ± 0.023
15,CGGGTAAC,0.181 ± 0.013
16,ATCCTCAA,-0.175 ± 0.0031
17,CAGCCGCA,0.0329 ± 0.043
18,ACAAGGGT,-0.0432 ± 0.035
19,GGAACTCA,-0.217 ± 0.0056
20,TCATGGAA,-0.178 ± 0.021
21,AGTAGCAC,0.357 ± 0.021
22,ACATGGGT,-0.0955 ± 0.028

row,Sequence,PBM E-score of 8-mer
1,AAGGATAG,-0.112 ± 0.017
2,CTGACCGC,-0.263 ± 0.036
3,TCATAGGA,-0.288 ± 0.013
4,TAAAGAAA,-0.0357 ± 0.024
5,AGCTACGC,-0.0634 ± 0.009
6,ACGAACGC,-0.0318 ± 0.025
7,ACGTTAGG,-0.118 ± 0.032
8,GGTAGTCA,-0.225 ± 0.0084
9,ATCACCAG,-0.0506 ± 0.043
10,ACTGAAAA,-0.0773 ± 0.076
11,CGCGGATA,0.039 ± 0.062
12,ACGCCTCG,0.356 ± 0.018
13,CTTAGCTA,-0.126 ± 0.029
14,CTTCTCTC,0.078 ± 0.034
15,GCGTTGTA,0.102 ± 0.0047
16,CCATGAAA,-0.275 ± 0.06
17,CTAGCCAC,0.00299 ± 0.033
18,ACGGATCT,-0.118 ± 0.0064
19,GTATTCGA,0.0428 ± 0.0073
20,GTGGGCGA,-0.05 ± 0.04
21,CCGGAGAC,0.0396 ± 0.052
22,ACAGACCA,-0.221 ± 0.056

row,Sequence,PBM E-score of 8-mer
1,CAGAGGAC,-0.222 ± 0.068
2,ACTAGTAT,-0.0181 ± 0.0013
3,ATAGAACC,-0.0785 ± 0.034
4,AGAAAACG,-0.188 ± 0.06
5,GGACTCCA,-0.2 ± 0.0023
6,CCCCATGA,-0.319 ± 0.038
7,CCATCAAG,-0.211 ± 0.03
8,ACCATCCA,-0.227 ± 0.05
9,CACGTATA,0.144 ± 0.025
10,CCTGGGCA,-0.0775 ± 0.023
11,ATTAAGCG,-0.0857 ± 0.02
12,CGTCCGGA,-0.352 ± 0.038
13,ACGTCTAT,-0.0516 ± 0.026
14,GGCAAACC,-0.196 ± 0.021
15,AGCGTTCA,0.0667 ± 0.031
16,TAACCTCA,-0.152 ± 0.0019
17,CATCGGAC,-0.182 ± 0.051
18,AAATCTGA,-0.0321 ± 0.14
19,AGCTATGA,-0.211 ± 0.031
20,GCGGTGAA,0.0135 ± 0.017
21,CATACCTC,0.0641 ± 0.035
22,ACTCATCC,-0.203 ± 0.024

row,Sequence,PBM E-score of 8-mer
1,AAACAGCC,-0.0308 ± 0.073
2,GCTACGAA,0.148 ± 0.018
3,ATGATTGG,-0.125 ± 0.048
4,ATCAGGCA,-0.0961 ± 0.031
5,ACCTCTCT,0.0009 ± 0.12
6,AGCCTGAC,-0.16 ± 0.0071
7,GCATGTAA,-0.124 ± 0.0041
8,CAATCTGG,-0.191 ± 0.018
9,CACATTAA,0.0988 ± 0.071
10,TAGATCAA,-0.205 ± 0.035
11,AAAGTGAT,0.299 ± 0.012
12,GACCCACC,-0.0714 ± 0.12
13,GATACCCA,-0.115 ± 0.021
14,AACGCTCC,-0.0249 ± 0.017
15,ACTAAAGC,0.0215 ± 0.041
16,AAAGCGTA,-0.0884 ± 0.056
17,GCACGATA,-0.145 ± 0.033
18,AATTTCGT,-0.0997 ± 0.08
19,AGATAAAA,-0.0961 ± 0.085
20,GACACATA,0.322 ± 0.038
21,AGGAACTC,-0.232 ± 0.04
22,AGTAACGA,0.073 ± 0.024
